Experimental data as given in the supplement of paper PMC4996465.
Viability of KB3-1 and Nalm-6 cells after 48 h of drug alone (CellTiter-Glo), 11 doses over about 4.5 log units. % of DMSO wells, lower = more cell loss; AC50 from the fitted curve, lower = more potent. No active / inactive call. Nalm-6 was screened in two runs. AC50 is listed only for well-fitted inhibitory curves. KB3-1 is a HeLa-derived carcinoma line, Nalm-6 a B-cell precursor leukaemia line.

Experiments:
Nalm-6 [1] = assay: log AC50 of viability decrease (48 h) (log10 M); higher = less potent
Protocol: (§1)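 Eleven-dose screen of the NCATS MIPE 3 library on cells without co-treatment; CellTiter-Glo after 48 h. AC50 from the curve fit; only inhibitory curves of the better fit classes are listed.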

KB3-1 [2] = assay: as above
Protocol: as §1

Nalm-6 [3] = assay: viability (% of DMSO control); higher = more viable cells
Protocol: (§2)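 Eleven-dose screen of the NCATS MIPE 3 library on cells without co-treatment; CellTiter-Glo after 48 h, as % of DMSO wells.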

KB3-1 [4] = assay: as above
Protocol: as §2

SMILES | log AC50 of viability decrease (Nalm-6 [1]; run: 1) | log AC50 of viability decrease (Nalm-6 [1]; run: 2) | log AC50 of viability decrease (KB3-1 [2]) | viability (Nalm-6 [3]; run: 1, 0.00078 µM) [%] | viability (Nalm-6 [3]; run: 1, 0.00234 µM) [%] | viability (Nalm-6 [3]; run: 1, 0.00702 µM) [%] | viability (Nalm-6 [3]; run: 1, 0.0211 µM) [%] | viability (Nalm-6 [3]; run: 1, 0.0632 µM) [%] | viability (Nalm-6 [3]; run: 1, 0.19 µM) [%] | viability (Nalm-6 [3]; run: 1, 0.569 µM) [%] | viability (Nalm-6 [3]; run: 1, 1.71 µM) [%] | viability (Nalm-6 [3]; run: 1, 5.12 µM) [%] | viability (Nalm-6 [3]; run: 1, 15.4 µM) [%] | viability (Nalm-6 [3]; run: 1, 46.1 µM) [%] | viability (Nalm-6 [3]; run: 2, 0.00078 µM) [%] | viability (Nalm-6 [3]; run: 2, 0.00234 µM) [%] | viability (Nalm-6 [3]; run: 2, 0.00702 µM) [%] | viability (Nalm-6 [3]; run: 2, 0.0211 µM) [%] | viability (Nalm-6 [3]; run: 2, 0.0632 µM) [%] | viability (Nalm-6 [3]; run: 2, 0.19 µM) [%] | viability (Nalm-6 [3]; run: 2, 0.569 µM) [%] | viability (Nalm-6 [3]; run: 2, 1.71 µM) [%] | viability (Nalm-6 [3]; run: 2, 5.12 µM) [%] | viability (Nalm-6 [3]; run: 2, 15.4 µM) [%] | viability (Nalm-6 [3]; run: 2, 46.1 µM) [%] | viability (KB3-1 [4]; 0.00078 µM) [%] | viability (KB3-1 [4]; 0.00234 µM) [%] | viability (KB3-1 [4]; 0.00702 µM) [%] | viability (KB3-1 [4]; 0.0211 µM) [%] | viability (KB3-1 [4]; 0.0632 µM) [%] | viability (KB3-1 [4]; 0.19 µM) [%] | viability (KB3-1 [4]; 0.569 µM) [%] | viability (KB3-1 [4]; 1.71 µM) [%] | viability (KB3-1 [4]; 5.12 µM) [%] | viability (KB3-1 [4]; 15.4 µM) [%] | viability (KB3-1 [4]; 46.1 µM) [%]
Cc1cnc(Nc2ccc(F)cc2Cl)nc1-c1c[nH]c(C(=O)N[C@H](CO)c2cccc(Cl)c2)c1 | -4.78 | -4.63 | -4.68 | 116 | 112 | 125 | 118 | 118 | 118 | 107 | 97.3 | 91.1 | 60.5 | -1.26 | 107 | 112 | 110 | 113 | 117 | 113 | 110 | 104 | 107 | 92.1 | -1.01 | 102 | 105 | 98.6 | 107 | 101 | 99.2 | 101 | 93.7 | 83.8 | 77.6 | 0.751
C[C@@H]1C[C@H]2[C@@H]3\C=C(C)/C4=C/C5=C(C[C@]4(C)[C@H]3[C@@H](O)C[C@]2(C)[C@@]1(O)C(=O)CO)C=N[N]5C6=CC=CC=C6 [Deacetyl cortivazol] | -5.53 | -5.78 | -4.63 | 52.1 | 42.4 | 40.3 | 42.4 | 41.5 | 43.2 | 36.4 | 35.6 | 8.15 | 5.71 | 0.123 | 49.2 | 44.2 | 37.4 | 41.8 | 44.6 | 38 | 36.4 | 20.6 | 4.56 | 3.05 | -0.46 | 103 | 105 | 104 | 102 | 103 | 104 | 109 | 99.8 | 90.5 | 85.7 | 0.964
